Laboratory results published in the supplement of paper PMC11417369.
The other results are listed elsewhere or left out.

System: PfAP2-HC AP2 domain (GST-tagged)
Assay: gcPBM binding intensity (ln(normalized median fluorescence intensity)); higher = stronger DNA binding
In short: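 In this array assay, P. falciparum DNA-binding domains with a GST tag, expressed in E. coli, were applied for 1 h to primer-extended double-stranded 36-bp intergenic genomic probes and negative controls on an Agilent 4 × 180k array. Bound protein was visualised with Alexa488 anti-GST antibody at 488 nm. Binding intensity is the highest Masliner-normalised natural-log median intensity across replicate spots of either probe orientation.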

Row | Sequence | gcPBM binding intensity (ln)
1 | TGTCATTTAATTTTTTGTACGAAAAAAACATATAAA [XGTACX_site4952] | 9.38
2 | TTCTCATCCTTACATACACACACATATATATATATA [CACACA_site7914] | 10.1
3 | TATAATCATAAATACACACACATATATATATATATA [CACACA_site5224] | 9.86
4 | GTTCAATTATTTTTATGTACATATATTTTTTTCTTT [XGTACX_site2505] | 9.95
5 | AAATTGGGGCTTGTTACACACTTAGTGTGAGTTCTA [CACACA_site6417] | 9.99
6 | ATTTATAATATGTATACACACACATATATAAATATA [CACACA_site8729] | 9.83
7 | TATTTATTATAAAAATTGTATAAAATAATAATGCTC [GTGCAC_negctrl_site456] | 9.49
8 | GTTATTAAAAACGGGTGTACACATATATAAATATAT [XGTACX_site1234] | 9.82
9 | ACTTTTTTAATGTTACGTACACATAAATAATAATTA [XGTACX_site8092] | 9.69
10 | TTTCACAAATGATATAGTACTTTTTATTATTAACAT [XGTACX_site7976] | 9.64
11 | TTCATTCTATAAAACACACAAATATTTTTGTATCCC [CACACA_site6458] | 9.61
12 | TTTTGTGATCTTACCACCTTTCATAATATTAATAAA [GTGCAC_negctrl_site360] | 9.46
13 | ATATATTTTAATGATACACACAAGAAATAAAATTAC [CACACA_site5671] | 9.92
14 | ATAGAACAATTCAGAAGTACATAAAAAGAAAAATTT [XGTACX_site3015] | 9.66
15 | TTGGATGATTAAGGGGGACACACGTTTATATATTTA [CACACA_site338] | 9.84
16 | AAATGTAAAATTTTATGTACATATATTTATATAATA [XGTACX_site3737] | 9.56
17 | GTTACACCAACAAACACACACACACCGACACCCAAA [CACACA_site5361] | 10.6
18 | ACAAATGAGATTATATGTACACATAACAAATTTACA [XGTACX_site3496] | 9.87
19 | ATGTTTTATAAAAGGCGTACACATATATTTAAGTAA [XGTACX_site6231] | 9.8
20 | TTTATTTATTTAATTACACACGAACATATAACCATT [CACACA_site7952] | 9.77
21 | TAAAAAAAAAAAAAAGTACACACTTATAAAATATTA [CACACA_site872] | 9.62
22 | ATATATTTTTTGAATACACACATATTATATGTAATA [CACACA_site1256] | 9.7
23 | AATACATAAAAATAAAAATAAAATATAACTAATATG [CACACA_negctrl_site186] | 9.75
24 | TTATACATATATTTAACACACATTTTATAAAGTGCC [CACACA_site1314] | 9.6
